The target in assay [1] is T1, 3xFLAG-His tagged CCDC6, wild type (UniProt Q16204).
T1 sequence: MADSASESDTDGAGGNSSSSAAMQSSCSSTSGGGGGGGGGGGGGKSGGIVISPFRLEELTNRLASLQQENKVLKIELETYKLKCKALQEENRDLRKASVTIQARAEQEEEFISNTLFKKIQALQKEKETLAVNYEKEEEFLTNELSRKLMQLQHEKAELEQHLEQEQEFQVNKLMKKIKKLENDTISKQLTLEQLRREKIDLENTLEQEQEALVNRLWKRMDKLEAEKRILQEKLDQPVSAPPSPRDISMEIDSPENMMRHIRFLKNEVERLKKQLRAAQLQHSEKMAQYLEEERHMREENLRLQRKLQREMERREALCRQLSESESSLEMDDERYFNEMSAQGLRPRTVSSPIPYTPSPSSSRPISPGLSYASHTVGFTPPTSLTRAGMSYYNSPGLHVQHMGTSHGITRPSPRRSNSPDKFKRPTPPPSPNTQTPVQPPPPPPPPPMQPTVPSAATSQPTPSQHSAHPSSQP
Put plainly: co-IP; IP with anti-FLAG antibody crosslinked to beads from lysates of CCDC6 knock-out RPE1 cells with doxycycline-induced (2 ug/ml) 3xFLAG-His CCDC6 constructs; PP4 subunits endogenous; western blot. (Immunoblotting shows a protein as a band on a membrane.)

Amino acid sequences for entries named in this document (tags omitted).
UniProt Q6P3S6: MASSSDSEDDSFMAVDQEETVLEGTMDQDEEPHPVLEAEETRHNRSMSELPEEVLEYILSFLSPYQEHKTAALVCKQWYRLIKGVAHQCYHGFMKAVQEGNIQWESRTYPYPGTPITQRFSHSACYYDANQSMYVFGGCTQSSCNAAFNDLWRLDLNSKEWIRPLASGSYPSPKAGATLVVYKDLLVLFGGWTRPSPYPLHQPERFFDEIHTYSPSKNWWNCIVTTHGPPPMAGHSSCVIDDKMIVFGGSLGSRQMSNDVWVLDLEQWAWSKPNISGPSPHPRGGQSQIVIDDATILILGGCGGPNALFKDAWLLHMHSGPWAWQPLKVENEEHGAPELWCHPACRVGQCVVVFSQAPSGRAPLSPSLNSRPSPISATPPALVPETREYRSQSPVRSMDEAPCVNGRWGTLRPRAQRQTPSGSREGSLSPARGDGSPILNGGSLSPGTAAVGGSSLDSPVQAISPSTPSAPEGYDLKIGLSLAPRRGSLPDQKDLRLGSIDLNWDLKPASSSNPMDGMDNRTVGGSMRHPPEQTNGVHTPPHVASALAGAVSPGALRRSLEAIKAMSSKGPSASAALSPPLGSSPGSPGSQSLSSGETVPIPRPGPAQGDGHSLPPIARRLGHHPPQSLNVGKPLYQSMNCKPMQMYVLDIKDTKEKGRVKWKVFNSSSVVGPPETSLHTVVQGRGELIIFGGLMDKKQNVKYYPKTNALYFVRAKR

A further assay has as its target T2, PPP4C-V5 (UniProt P60510).
T2 sequence: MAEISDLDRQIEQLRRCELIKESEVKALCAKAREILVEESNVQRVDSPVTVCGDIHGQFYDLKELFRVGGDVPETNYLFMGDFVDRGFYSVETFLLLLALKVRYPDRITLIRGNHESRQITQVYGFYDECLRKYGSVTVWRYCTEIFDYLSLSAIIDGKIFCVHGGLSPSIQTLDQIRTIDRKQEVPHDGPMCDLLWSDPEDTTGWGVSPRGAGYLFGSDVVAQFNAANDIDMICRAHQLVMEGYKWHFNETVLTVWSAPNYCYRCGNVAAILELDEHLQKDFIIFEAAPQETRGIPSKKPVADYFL
Put plainly: co-IP; IP with a V5 antibody from lysates of RPE1 cells expressing PPP4C-V5, FBXO42-Myc and CCDC6-6xHis; WT, FBXO42-/- and CCDC6-/- cells; western blot.

The target of assay [2] is T3, 3xFLAG-His tagged CCDC6 F423A (UniProt Q16204).
T3 sequence: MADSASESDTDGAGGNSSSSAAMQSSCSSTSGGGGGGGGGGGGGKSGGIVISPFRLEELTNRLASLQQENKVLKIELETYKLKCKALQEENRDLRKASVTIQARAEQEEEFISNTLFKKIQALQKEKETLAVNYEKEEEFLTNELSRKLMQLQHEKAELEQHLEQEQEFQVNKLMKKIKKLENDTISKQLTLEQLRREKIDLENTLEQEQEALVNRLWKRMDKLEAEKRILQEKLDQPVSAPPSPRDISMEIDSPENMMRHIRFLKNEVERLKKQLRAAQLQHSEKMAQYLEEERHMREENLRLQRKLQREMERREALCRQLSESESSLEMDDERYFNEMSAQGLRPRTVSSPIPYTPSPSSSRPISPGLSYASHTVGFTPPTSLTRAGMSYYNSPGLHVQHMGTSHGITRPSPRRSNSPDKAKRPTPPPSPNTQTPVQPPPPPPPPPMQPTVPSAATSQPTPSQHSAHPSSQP
Put plainly: co-IP; IP with anti-FLAG antibody crosslinked to beads from lysates of CCDC6 knock-out RPE1 cells with doxycycline-induced (2 ug/ml) 3xFLAG-His CCDC6 constructs; PP4 subunits endogenous; western blot.

Assay [3] deals with T4, 3xFLAG-His tagged CCDC6 “1A” variant (UniProt Q16204).
T4 sequence: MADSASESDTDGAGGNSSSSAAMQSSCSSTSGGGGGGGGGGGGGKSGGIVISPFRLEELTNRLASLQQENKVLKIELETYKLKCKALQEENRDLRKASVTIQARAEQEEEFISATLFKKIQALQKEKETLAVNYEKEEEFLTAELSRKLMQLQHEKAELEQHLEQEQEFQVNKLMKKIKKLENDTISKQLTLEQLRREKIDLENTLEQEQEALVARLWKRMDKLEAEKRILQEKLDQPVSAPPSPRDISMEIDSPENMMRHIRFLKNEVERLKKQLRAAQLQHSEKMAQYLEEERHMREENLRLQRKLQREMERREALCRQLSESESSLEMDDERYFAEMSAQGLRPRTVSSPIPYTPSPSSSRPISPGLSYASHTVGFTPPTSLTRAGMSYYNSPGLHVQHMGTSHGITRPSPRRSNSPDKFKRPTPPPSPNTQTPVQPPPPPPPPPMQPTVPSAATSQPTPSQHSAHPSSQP
The assay is described as above.

For assay [4], the target named is T5, 3xFLAG-His tagged CCDC6 “All A” variant (UniProt Q16204).
T5 sequence: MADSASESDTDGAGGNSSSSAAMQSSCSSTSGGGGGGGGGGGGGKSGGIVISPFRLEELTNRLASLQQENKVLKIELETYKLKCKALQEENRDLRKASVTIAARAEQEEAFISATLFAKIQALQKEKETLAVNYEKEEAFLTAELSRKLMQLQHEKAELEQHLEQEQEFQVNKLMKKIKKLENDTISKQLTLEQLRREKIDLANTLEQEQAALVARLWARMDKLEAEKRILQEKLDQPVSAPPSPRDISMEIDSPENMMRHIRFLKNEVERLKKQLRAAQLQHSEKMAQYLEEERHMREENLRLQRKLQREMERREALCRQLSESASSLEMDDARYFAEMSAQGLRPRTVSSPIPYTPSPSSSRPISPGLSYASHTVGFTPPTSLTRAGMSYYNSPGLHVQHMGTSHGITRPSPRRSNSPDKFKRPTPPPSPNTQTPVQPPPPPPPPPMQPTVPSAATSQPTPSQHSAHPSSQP
Described as above.

In assay [5] the target is T6, 3xFLAG-His tagged CCDC6, wild type, Q16204.
T6 chain: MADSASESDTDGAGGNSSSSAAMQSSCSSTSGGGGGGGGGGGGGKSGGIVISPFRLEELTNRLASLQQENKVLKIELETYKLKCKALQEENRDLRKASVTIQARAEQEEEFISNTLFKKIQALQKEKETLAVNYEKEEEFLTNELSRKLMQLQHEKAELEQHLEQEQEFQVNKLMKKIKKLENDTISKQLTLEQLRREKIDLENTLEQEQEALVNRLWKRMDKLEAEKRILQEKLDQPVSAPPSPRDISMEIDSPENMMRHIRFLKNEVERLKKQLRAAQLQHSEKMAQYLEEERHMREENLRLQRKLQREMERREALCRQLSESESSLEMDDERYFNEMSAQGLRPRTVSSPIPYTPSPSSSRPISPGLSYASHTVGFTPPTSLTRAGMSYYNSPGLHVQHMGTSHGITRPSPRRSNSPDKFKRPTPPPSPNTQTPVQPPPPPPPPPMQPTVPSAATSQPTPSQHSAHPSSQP
The description is as above. The following applies: remark: other sources report otherwise.

These are yes or no findings as the source states them, for the method shown. Binding seen in cells or lysates may run through a third protein. Some binding calls cover weakened binding; strength is not graded here. Sequences can lack the tags named with a protein.

On to “PPP4R3B (endogenous, RPE1 cells) (from UniProt Q5MIZ7 1-849)”, for which, in assay [1], the binding entry was “no binding”.

With FBXO42-Myc (from UniProt Q6P3S6 1-717), the binding entry in the assay with PPP4C-V5 is “binds”.

B1: CCDC6-6xHis (protein, UniProt Q16204 1-474)
chain: MADSASESDTDGAGGNSSSSAAMQSSCSSTSGGGGGGGGGGGGGKSGGIVISPFRLEELTNRLASLQQENKVLKIELETYKLKCKALQEENRDLRKASVTIQARAEQEEEFISNTLFKKIQALQKEKETLAVNYEKEEEFLTNELSRKLMQLQHEKAELEQHLEQEQEFQVNKLMKKIKKLENDTISKQLTLEQLRREKIDLENTLEQEQEALVNRLWKRMDKLEAEKRILQEKLDQPVSAPPSPRDISMEIDSPENMMRHIRFLKNEVERLKKQLRAAQLQHSEKMAQYLEEERHMREENLRLQRKLQREMERREALCRQLSESESSLEMDDERYFNEMSAQGLRPRTVSSPIPYTPSPSSSRPISPGLSYASHTVGFTPPTSLTRAGMSYYNSPGLHVQHMGTSHGITRPSPRRSNSPDKFKRPTPPPSPNTQTPVQPPPPPPPPPMQPTVPSAATSQPTPSQHSAHPSSQP
For B1, in the assay with PPP4C-V5, the binding entry is on record as “binds”.

B2: PPP4R1 (endogenous, RPE1 cells) (protein, UniProt Q8TF05 1-950)
chain: MADLSLLQEDLQEDADGFGVDDYSSESDVIIIPSALDFVSQDEMLTPLGRLDKYAASENIFNRQMVARSLLDTLREVCDDERDCIAVLERISRLADDSEPTVRAELMEQVPHIALFCQENRPSIPYAFSKFLLPIVVRYLADQNNQVRKTSQAALLALLEQELIERFDVETKVCPVLIELTAPDSNDDVKTEAVAIMCKMAPMVGKDITERLILPRFCEMCCDCRMFHVRKVCAANFGDICSVVGQQATEEMLLPRFFQLCSDNVWGVRKACAECFMAVSCATCQEIRRTKLSALFINLISDPSRWVRQAAFQSLGPFISTFANPSSSGQYFKEESKSSEEMSVENKNRTRDQEAPEDVQVRPEDTPSDLSVSNSSVILENTMEDHAAEASGKPLGEISVPLDSSLLCTLSSESHQEAASNENDKKPGNYKSMLRPEVGTTSQDSALLDQELYNSFHFWRTPLPEIDLDIELEQNSGGKPSPEGPEEESEGPVPSSPNITMATRKELEEMIENLEPHIDDPDVKAQVEVLSAALRASSLDAHEETISIEKRSDLQDELDINELPNCKINQEDSVPLISDAVENMDSTLHYIHSDSDLSNNSSFSPDEERRTKVQDVVPQALLDQYLSMTDPSRAQTVDTEIAKHCAYSLPGVALTLGRQNWHCLRETYETLASDMQWKVRRTLAFSIHELAVILGDQLTAADLVPIFNGFLKDLDEVRIGVLKHLHDFLKLLHIDKRREYLYQLQEFLVTDNSRNWRFRAELAEQLILLLELYSPRDVYDYLRPIALNLCADKVSSVRWISYKLVSEMVKKLHAATPPTFGVDLINELVENFGRCPKWSGRQAFVFVCQTVIEDDCLPMDQFAVHLMPHLLTLANDRVPNVRVLLAKTLRQTLLEKDYFLASASCHQEAVEQTIMALQMDRDSDVKYFASIHPASTKISEDAMSTASSTY
Consider B2, for which the binding result was “binds” in assay [2], “no binding” in assay [3], “binds” in assay [1] and “no binding” in assay [4].

B3: PPP4R3A (endogenous, RPE1 cells), Q6IN85 1-833 (protein)
chain: MTDTRRRVKVYTLNEDRQWDDRGTGHVSSGYVERLKGMSLLVRAESDGSLLLESKINPNTAYQKQQDTLIVWSEAENYDLALSFQEKAGCDEIWEKICQVQGKDPSVDITQDLVDESEEERFDDMSSPGLELPSCELSRLEEIAELVASSLPSPLRREKLALALENEGYIKKLLELFHVCEDLENIEGLHHLYEIIKGIFLLNRTALFEVMFSEECIMDVIGCLEYDPALSQPRKHREFLTKTAKFKEVIPISDPELKQKIHQTYRVQYIQDMVLPTPSVFEENMLSTLHSFIFFNKVEIVGMLQEDEKFLTDLFAQLTDEATDEEKRQELVNFLKEFCAFSQTLQPQNRDAFFKTLSNMGILPALEVILGMDDTQVRSAATDIFSYLVEYNPSMVREFVMQEAQQNDDVSKKLTEQKITSKDILLINLIIEHMICDTDPELGGAVQLMGLLRTLVDPENMLATANKTEKTEFLGFFYKHCMHVLTAPLLANTTEDKPSKDDFQTAQLLALVLELLTFCVEHHTYHIKNYIINKDILRRVLVLMASKHAFLALCALRFKRKIIGLKDEFYNRYIMKSFLFEPVVKAFLNNGSRYNLMNSAIIEMFEFIRVEDIKSLTAHVIENYWKALEDVDYVQTFKGLKLRFEQQRERQDNPKLDSMRSILRNHRYRRDARTLEDEEEMWFNTDEDDMEDGEAVVSPSDKTKNDDDIMDPISKFMERKKLKESEEKEVLLKTNLSGRQSPSFKLSLSSGTKTNLTSQSSTTNLPGSPGSPGSPGSPGSPGSVPKNTSQTAAITTKGGLVGLVDYPDDDEDDDEDEDKEDTLPLSKKAKFDS
In the case of B3, the binding entry in assay [5] is reported as “no binding”.

B4: PPP4C (endogenous, RPE1 cells) (protein, UniProt P60510 1-307)
chain: MAEISDLDRQIEQLRRCELIKESEVKALCAKAREILVEESNVQRVDSPVTVCGDIHGQFYDLKELFRVGGDVPETNYLFMGDFVDRGFYSVETFLLLLALKVRYPDRITLIRGNHESRQITQVYGFYDECLRKYGSVTVWRYCTEIFDYLSLSAIIDGKIFCVHGGLSPSIQTLDQIRTIDRKQEVPHDGPMCDLLWSDPEDTTGWGVSPRGAGYLFGSDVVAQFNAANDIDMICRAHQLVMEGYKWHFNETVLTVWSAPNYCYRCGNVAAILELDEHLQKDFIIFEAAPQETRGIPSKKPVADYFL
B4: the binding entry in assay [2] is reported as “binds”; in assay [3] it was “no binding”; in assay [1], “binds”; in assay [4], “no binding”.

B5: PPP4R2 (endogenous, RPE1 cells) (protein, UniProt Q9NY27 1-417)
chain: MDVERLQEALKDFEKRGKKEVCPVLDQFLCHVAKTGETMIQWSQFKGYFIFKLEKVMDDFRTSAPEPRGPPNPNVEYIPFDEMKERILKIVTGFNGIPFTIQRLCELLTDPRRNYTGTDKFLRGVEKNVMVVSCVYPSSEKNNSNSLNRMNGVMFPGNSPSYTERSNINGPGTPRPLNRPKVSLSAPMTTNGLPESTDSKEANLQQNEEKNHSDSSTSESEVSSVSPLKNKHPDEDAVEAEGHEVKRLRFDKEGEVRETASQTTSSEISSVMVGETEASSSSQDKDKDSRCTRQHCTEEDEEEDEEEEEESFMTSREMIPERKNQEKESDDALTVNEETSEENNQMEESDVSQAEKDLLHSEGSENEGPVSSSSSDCRETEELVGSNSSKTGEILSESSMENDDEATEVTDEPMEQD
With B5, in assay [1], the binding result is “no binding”.

Values taken from paper PMC13458699.
